Laboratory results taken from PMC4336329 (PLoS ONE, 2015).
Among all 310,000 compounds or so, about 2,200 (0.71%) showed an effect of 50% or more. The effect is printed as a negative number. Some of the results follow.

target: human ether-à-go-go-related gene (hERG) potassium channel (human, UniProt Q12809); test: primary screen, population patch clamp on CHO cells stably expressing hERG
Sequence (Q12809 whole entry, looked up): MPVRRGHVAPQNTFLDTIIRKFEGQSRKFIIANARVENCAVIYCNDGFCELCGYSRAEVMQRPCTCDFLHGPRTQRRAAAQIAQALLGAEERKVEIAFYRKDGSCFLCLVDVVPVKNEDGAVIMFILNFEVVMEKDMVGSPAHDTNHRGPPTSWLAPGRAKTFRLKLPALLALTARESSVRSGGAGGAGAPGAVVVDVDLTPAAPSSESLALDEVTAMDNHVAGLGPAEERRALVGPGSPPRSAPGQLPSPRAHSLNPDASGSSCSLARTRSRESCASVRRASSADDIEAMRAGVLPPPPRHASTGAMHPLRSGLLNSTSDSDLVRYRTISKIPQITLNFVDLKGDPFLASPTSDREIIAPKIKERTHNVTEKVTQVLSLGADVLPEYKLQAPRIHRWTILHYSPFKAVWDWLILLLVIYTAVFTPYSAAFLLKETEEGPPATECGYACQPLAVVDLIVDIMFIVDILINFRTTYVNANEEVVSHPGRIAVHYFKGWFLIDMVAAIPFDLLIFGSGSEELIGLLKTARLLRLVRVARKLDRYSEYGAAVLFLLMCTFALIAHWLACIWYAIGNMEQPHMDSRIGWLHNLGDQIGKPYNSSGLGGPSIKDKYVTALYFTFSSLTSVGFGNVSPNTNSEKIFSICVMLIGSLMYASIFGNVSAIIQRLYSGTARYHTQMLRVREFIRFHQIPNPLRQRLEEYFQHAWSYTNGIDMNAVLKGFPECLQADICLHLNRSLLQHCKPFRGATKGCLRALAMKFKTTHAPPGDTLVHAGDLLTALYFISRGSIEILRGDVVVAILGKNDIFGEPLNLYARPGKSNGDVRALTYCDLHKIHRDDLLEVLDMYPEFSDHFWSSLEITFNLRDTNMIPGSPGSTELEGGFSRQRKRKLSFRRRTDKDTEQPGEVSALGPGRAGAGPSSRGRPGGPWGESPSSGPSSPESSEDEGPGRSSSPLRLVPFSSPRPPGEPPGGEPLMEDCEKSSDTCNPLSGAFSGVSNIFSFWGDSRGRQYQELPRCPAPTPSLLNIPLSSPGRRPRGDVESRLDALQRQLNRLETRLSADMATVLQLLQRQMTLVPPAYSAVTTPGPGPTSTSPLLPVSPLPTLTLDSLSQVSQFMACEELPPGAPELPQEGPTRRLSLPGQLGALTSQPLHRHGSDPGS

Structure (SMILES)	hERG current change (%, negative = inhibition) at 1uM
N#CCCN(C(=O)COc1ccc(Br)cc1F)c1ccc(F)cc1	-20.1%
O=C1NC(=O)C(=C/C=C/c2coc3ccc(Br)cc3c2=O)C(=O)N1	6.81%
COCCNC(=O)Cn1nc(C)c([N+](=O)[O-])c1C	1.12%
COc1cc(OC)cc(C(=O)NNC(=S)NC2CC2)c1	16.4%
OCC1CO1 (stereo not shown)	12.7%
COc1cc(OC)cc(C(=O)N[C@H](C(=O)NCc2cccs2)C(C)C)c1	3.82%
OCCN(CCO)CC(O)COc1ccc(Br)cc1 (stereo not shown)	5.84%
COc1ccc(-c2nc(SCc3ccc(C#N)cc3)[nH]c(=O)c2C#N)cc1	15.1%
COc1ccc(NC(=O)c2cc(-c3ccc(C)c(C)c3O)n[nH]2)cc1Cl	22.1%
CC(C)CCN(CC(=O)NCc1ccc(F)cc1)S(=O)(=O)c1ccccc1F	3.06%
O=C(CCC(=O)c1cccs1)OCC(=O)N1CCN(S(=O)(=O)c2ccccc2)CC1	3.61%
CCn1c(=O)cc(SCC(=O)Nc2cc(OC)c(OC)c(OC)c2)c2ccccc21	1.27%
O=C(NCCc1c[nH]c2ccccc12)C1CCN(c2nnc(N3CCCC3=O)s2)CC1	13%
CC(=O)Nc1ccc(S(=O)(=O)NCc2csc(C)n2)cc1	6.48%
Cc1[nH]n(C(N)=S)c(=O)c1N=Nc1cccc(Cl)c1	11.7%
CCn1c(C)nc2cc(C#N)ccc21	15.4%
CCOc1ccc(N2C(=O)CC(NCCc3ccc(S(N)(=O)=O)cc3)C2=O)cc1 (stereo not shown)	11.9%
O=C(Cc1cccs1)Nc1nc2ccccc2s1	8.59%
O=C(O)c1ccc(N(c2ccccc2)c2ccccc2)cc1	6.53%
COc1ccc(C2Nc3ccccc3NC3=C2C(=O)CC(C)(C)C3)cc1OC (stereo not shown)	10.3%
NC(=O)C1(c2ccccc2)CCC(=O)N1c1ccccc1 (stereo not shown)	14.8%
O=C(COC(=O)c1cccnc1Nc1cccc(C(F)(F)F)c1)NC1CCS(=O)(=O)C1 (stereo not shown)	9.44%

Structure (SMILES)	hERG current change (%, negative = inhibition) at 1uM
CC(NC(=O)Cn1cnc2c1c(=O)n(C)c(=O)n2C)c1ccccc1 (stereo not shown)	6.17%
CCCCn1c(N)c(N(CC)C(=O)c2ccc(N(C)S(=O)(=O)c3ccc(C)cc3)cc2)c(=O)[nH]c1=O	3.24%
CN(C)c1ccc(/C=C/c2cccc[n+]2[O-])cc1	16%
COc1ccc(NC(=O)c2scc(S(=O)(=O)C(C)C)c2N)cc1	13.3%
C#CCOCCOCCOCCNc1nc(N2CCN(C(=O)Cn3cc(CCCC[NH3+])nn3)CC2)nc(N2CCN(C(=O)[C@H]([C@@H](C)CC)n3cc(CCCC[NH3+])nn3)CC2)n1.[Cl-]	9.19%
Cc1ccc(NC(=O)c2ccc(OCC3CCCO3)cc2)cc1 (stereo not shown)	-4.17%
Cc1ccc(-n2c(SCC(=O)Nc3cccc(S(=O)(=O)NC4=NCCCCC4)c3)nc3ccccc3c2=O)cc1	-2.44%
COc1ccc(CSc2nnc(C)n2N)cc1[N+](=O)[O-]	-0.178%
Cc1occc1-c1nnc(SCC(=O)c2ccc(Cl)cc2)n1C	3.21%
CCn1c(C)nnc1SCC(=O)Nc1ccccc1OC	15.1%
C=CCNC(=O)COC(=O)c1ccc(Sc2nncn2C)c([N+](=O)[O-])c1	9.83%
Cc1sc2ncn(CC(=O)NCc3ccccc3)c(=O)c2c1C	10.7%
O=C(N/N=C/c1cccc(O)c1)C(=O)N1CCCCCC1	10.4%
Cc1ccn2c(C(=O)CSc3ccc(Cl)cc3Cl)c(C)nc2c1	18.3%
CSc1sccc1/C=N/NC(=O)c1ccncc1	10.2%
O=C(CCC(=O)Nc1nnc(C2CCCCC2)s1)NCc1cccs1	12.7%
CN(C(=O)COC(=O)CCC1CCCCC1)c1c(N)n(Cc2ccccc2)c(=O)[nH]c1=O	15.6%
CCOC(=O)C1(Cc2ccccc2C)CCCN(C(=O)c2cc(CC)nn2C)C1 (stereo not shown)	5.67%
O=[N+]([O-])c1ccc(NC(=S)NCCc2ccc(F)cc2)cc1	1.03%
CSc1nc(C)nc(N/C=C(\C#N)S(=O)(=O)c2ccccc2Cl)n1	6.24%
Cc1cc(-c2nn3c(-c4ccccc4)nnc3s2)c2ccccc2n1	6.78%
Cc1cc(C)n(CCCNC(=O)CCNS(=O)(=O)c2ccccc2C(F)(F)F)n1	9.68%

Structure (SMILES)	hERG current change (%, negative = inhibition) at 1uM
COC(=O)c1c(C(=O)OC)n(CCCN)c2ccc(C)cc12.Cl	-5.36%
COC(=O)c1ccc(Nc2cc(C)nc3ccc(C)cc23)cc1.Cl	-9.09%
CCc1nnc(NC(=O)CSc2nc3c([nH]c4ccccc43)c(=O)n2CCOC)s1	4.47%
O=C1C=C(Nc2ccccc2O)c2ccccc2C1=O	-5.19%
Cc1cc(C)n(Cc2ccccc2F)c(=O)c1C#N	10.6%
CCC(C)C(=O)Nc1nc2c(s1)C(=O)CC(C)(C)C2 (stereo not shown)	5.59%
Cc1cc(F)ccc1NS(=O)(=O)c1c(C)nc2scc(C)n2c1=O	-7.24%
C[C@@]12C(=O)N(Cc3ccccc3)CC(=O)N1[C@H]1c3ccccc3OC[C@@H]1[C@@H]2c1ccccc1	13.5%
Cc1ccc(S(=O)(=O)NNC(=O)Nc2cccc(C)c2C)c(C)c1	9.75%
Cc1ccc(NC(=O)CN(C)C(=O)CSc2n[nH]c(N)n2)cc1	3.99%
COc1ccc(OCc2cc(C(=O)O)c(C)o2)cc1	12.3%
CCOC(=O)Cn1c(=NC(=O)CC)sc2c(C)cc(C)cc21	13.1%
C=CCNC(=O)C1CCN(S(=O)(=O)c2ccc(Br)cc2)CC1	-12.5%
CCC1Oc2ccc(C)cc2N(CC(=O)N(Cc2ccc(C)o2)C2CC(C)(C)NC(C)(C)C2)C1=O (stereo not shown)	2.6%
COc1ccc(C[C@H]2CN3C(=NC[C@H]3Cc3ccccc3)N2CCNC(=O)c2ccc(C)c(Br)c2)cc1	-24.7%
CCCN1CCN(C(=O)Nc2cccc(C(F)(F)F)c2)CC1	-6.7%
Cc1cc(C)nc(SCC(=O)c2ccc(O)cc2O)n1	11.3%
CCN(CC)S(=O)(=O)c1ccc(N2CCCCC2)c(NC(=O)/C=C/c2cc(OC)c(OC)c(OC)c2)c1	9.49%
Cc1cccc2cc(C3CC(c4ccco4)=NN3S(C)(=O)=O)c(Cl)nc12 (stereo not shown)	9.7%
CCOc1cc(C2c3c(-c4ccccc4)n[nH]c3C(=O)N2c2ccc(C(=O)O)cc2)ccc1O (stereo not shown)	5.4%
Cc1ccnc(NC(=O)CCC(=O)N(CC(=O)NC2CCCCC2)Cc2ccccc2)c1	12.6%
Cn1nnnc1SCC(=O)Nc1ccccc1Br	5.29%

Structure (SMILES)	hERG current change (%, negative = inhibition) at 1uM
Cc1csc(=O)n1CC(=O)OC(C)C(=O)Nc1ccc(F)c(F)c1F (stereo not shown)	12.9%
c1cnc(N2CCSCC2)nc1	3.46%
CC(CCc1ccccc1)NC(=O)c1ccc(Br)o1 (stereo not shown)	9.48%
Cn1c(SCC(=O)Nc2cccc(F)c2)nc2c(c1=O)SCC2	8.74%
CN(C)S(=O)(=O)c1cccc(C(=O)Nc2ccc(S(=O)(=O)N3CCCC3)cc2)c1	13.5%
COc1ccc(C(=O)O/N=C(\N)c2ccc(OC)c(OC)c2)cc1	6.77%
Cc1nn(Cc2ccccc2)c(C)c1NC(=O)CSc1n[nH]c(C)c1[N+](=O)[O-]	5.93%
Cc1c(C)c2c(OCC(=O)NCC(O)c3ccccc3)cc3c(c2oc1=O)CCC(C)(C)O3 (stereo not shown)	13.7%
Cc1nn(C)c(Oc2ccc(Cl)cc2)c1C(=O)O	15.2%
CC(C)NC(=O)C(=O)N/N=C/c1ccco1	15.4%
CC(C)NCC1CCc2cc(CO)c([N+](=O)[O-])cc2N1 (stereo not shown)	16.2%
N#Cc1cc(Oc2cccc3cccnc23)c(-n2nnc3ccccc32)cc1C#N	6.89%
O=[N+]([O-])c1ccc(/C=N/Nc2nc(N3CCOCC3)nc(N3CCOCC3)n2)cc1	13.3%
CC1CN(CCOc2ccccc2[N+](=O)[O-])CC(C)O1.O=C(O)C(=O)O (stereo not shown)	7.35%
Cc1ccc(C)c(CN2C(=O)c3ccccc3S(=O)c3ccc(C(=O)N4CCN(c5ccccn5)CC4)cc32)c1 (stereo not shown)	4.96%
COc1cc(C)ccc1OCCOCCOc1ccccc1Br	16.7%
CC(=O)n1cc(N(C(=O)CCl)c2ccccc2)c2ccccc21	16%
O=C(O)CCNc1cc2ccccc2cc1C(=O)O	1.77%
CN(C(=O)CSc1nc2sc3c(c2c(=O)n1C)CCC3)C1CCS(=O)(=O)C1 (stereo not shown)	11.4%
O=c1[nH]c(Nc2ccccc2)cc2cc(Br)ccc12	9.83%
COc1ccc(S(=O)(=O)N2CCCC(C(=O)Nc3cccc(C(C)=O)c3)C2)cc1 (stereo not shown)	4.17%
Cc1c(C)[n+](=O)c2c(n1[O-])C(Br)CCC2Br (stereo not shown)	3.4%
